From the supplement of paper PMC9151546
Single values are uncertain, as repeats are few or missing.

What was measured:
CHO-K1 [1] = assay: micronucleus frequency (% of nucleated events); higher = more micronuclei (genotoxic)
CHO-K1 [2] = assay: hypodiploid nuclei frequency (% of nucleated events); higher = more hypodiploid events (aneugenic)
Method: (§1)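 Flow-cytometric in vitro micronucleus assay (Litron MicroFlow) in CHO-K1 cells in 96-well plates, 19 concentrations (4.5-200 µM, n=1 per concentration). Without S9, cells were exposed for 24 h and sampled at 48 h. With Aroclor 1254-induced rat liver S9, cells were exposed for 3-4 h and sampled at 27-28 h. Read-outs are %MN and %hypodiploid nuclei relative to nucleated events, and relative survival as the nuclei-to-bead ratio versus the 1% DMSO vehicle control (x100).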

CHO-K1 [3] = assay: relative survival (nuclei to bead ratio vs DMSO control) (% of vehicle control); higher = more surviving cells
Method: as §1
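Throughout, for hypodiploid nuclei frequency (% of nucleated events): hypodiploid nuclei gated on a flow cytometer with 488 nm excitation after SYTOX Green staining, cultures at 37 °C, positive controls vinblastine without S9 and cyclophosphamide with S9.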
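Throughout, for micronucleus frequency (% of nucleated events): cells lysed with nuclei stained by SYTOX Green, then micronucleus-gated events counted against nucleated events by flow cytometry with 488 nm excitation.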
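Throughout, for relative survival (nuclei to bead ratio vs DMSO control): Lysed-cell nuclei stained with SYTOX Green and counted against counting beads by flow cytometry at 488 nm excitation, with vinblastine (no S9) and cyclophosphamide (plus S9) as positive controls.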

Nc1ccc(Oc2ccc(N)cc2)cc1 [4,4'-Oxydianiline]
Conditions | hypodiploid nuclei frequency, CHO-K1 [2] [%] | micronucleus frequency, CHO-K1 [1] [%] | relative survival, CHO-K1 [3]
concentration: 4.5 (µM), S9 metabolic activation: with S9, exposure time: 3-4 hours | 0.4 | 3.48 | 79.2
concentration: 4.5 (µM), S9 metabolic activation: without S9, exposure time: 24 hours | 0.88 | 2.22 | 95.1
concentration: 5.63 (µM), S9 metabolic activation: with S9, exposure time: 3-4 hours | 0.3 | 3.36 | 77.4
concentration: 5.63 (µM), S9 metabolic activation: without S9, exposure time: 24 hours | 1 | 2 | 86
concentration: 7.04 (µM), S9 metabolic activation: with S9, exposure time: 3-4 hours | 0.44 | 2.98 | 87.1
concentration: 7.04 (µM), S9 metabolic activation: without S9, exposure time: 24 hours | 0.84 | 2.1 | 78.8
concentration: 8.8 (µM), S9 metabolic activation: with S9, exposure time: 3-4 hours | 0.78 | 3.62 | 84.7
concentration: 8.8 (µM), S9 metabolic activation: without S9, exposure time: 24 hours | 1.34 | 1.5 | 98.3
concentration: 11 (µM), S9 metabolic activation: with S9, exposure time: 3-4 hours | 0.32 | 2.34 | 88.4
concentration: 11 (µM), S9 metabolic activation: without S9, exposure time: 24 hours | 1.08 | 3.08 | 86.4
concentration: 13.7 (µM), S9 metabolic activation: with S9, exposure time: 3-4 hours | 0.54 | 2.98 | 89.8
concentration: 13.7 (µM), S9 metabolic activation: without S9, exposure time: 24 hours | 1.08 | 2.16 | 93.4
concentration: 17.2 (µM), S9 metabolic activation: with S9, exposure time: 3-4 hours | 0.36 | 2.32 | 90.8
concentration: 17.2 (µM), S9 metabolic activation: without S9, exposure time: 24 hours | 1.3 | 1.58 | 103
concentration: 21.5 (µM), S9 metabolic activation: with S9, exposure time: 3-4 hours | 0.4 | 2.86 | 83.4
concentration: 21.5 (µM), S9 metabolic activation: without S9, exposure time: 24 hours | 1.22 | 1.74 | 102
concentration: 26.8 (µM), S9 metabolic activation: with S9, exposure time: 3-4 hours | 0.32 | 1.98 | 101
concentration: 26.8 (µM), S9 metabolic activation: without S9, exposure time: 24 hours | 1.54 | 3.22 | 86.7
concentration: 33.6 (µM), S9 metabolic activation: with S9, exposure time: 3-4 hours | 0.44 | 2.8 | 92.7
concentration: 33.6 (µM), S9 metabolic activation: without S9, exposure time: 24 hours | 1.28 | 2.68 | 88.6
concentration: 41.9 (µM), S9 metabolic activation: with S9, exposure time: 3-4 hours | 0.52 | 2.54 | 99.5
concentration: 41.9 (µM), S9 metabolic activation: without S9, exposure time: 24 hours | 1.12 | 1.8 | 80.3
concentration: 52.4 (µM), S9 metabolic activation: with S9, exposure time: 3-4 hours | 0.4 | 1.9 | 90.5
concentration: 52.4 (µM), S9 metabolic activation: without S9, exposure time: 24 hours | 1.42 | 2.52 | 90.1
concentration: 65.5 (µM), S9 metabolic activation: with S9, exposure time: 3-4 hours | 0.32 | 2.5 | 86.8
concentration: 65.5 (µM), S9 metabolic activation: without S9, exposure time: 24 hours | 1.3 | 2.72 | 79.7
concentration: 81.9 (µM), S9 metabolic activation: with S9, exposure time: 3-4 hours | 0.24 | 2.57 | 71.3
concentration: 81.9 (µM), S9 metabolic activation: without S9, exposure time: 24 hours | 1.74 | 3.22 | 68.6
concentration: 102 (µM), S9 metabolic activation: with S9, exposure time: 3-4 hours | 0.28 | 2.74 | 97
concentration: 102 (µM), S9 metabolic activation: without S9, exposure time: 24 hours | 1.6 | 4 | 74.8
concentration: 128 (µM), S9 metabolic activation: with S9, exposure time: 3-4 hours | 0.3 | 2 | 103
concentration: 128 (µM), S9 metabolic activation: without S9, exposure time: 24 hours | 2.32 | 3.68 | 63.1
concentration: 160 (µM), S9 metabolic activation: with S9, exposure time: 3-4 hours | 0.28 | 2.08 | 98.1
concentration: 160 (µM), S9 metabolic activation: without S9, exposure time: 24 hours | 2.3 | 3.42 | 69.3
concentration: 200 (µM), S9 metabolic activation: with S9, exposure time: 3-4 hours | 0.34 | 1.76 | 87.7
concentration: 200 (µM), S9 metabolic activation: without S9, exposure time: 24 hours | 2.2 | 3.84 | 46.3

O=C1CCCCCN1 [Caprolactam]
Conditions | hypodiploid nuclei frequency, CHO-K1 [2] [%] | micronucleus frequency, CHO-K1 [1] [%] | relative survival, CHO-K1 [3]
concentration: 4.46 (µM), S9 metabolic activation: with S9, exposure time: 3-4 hours | 0.4 | 2.06 | 160
concentration: 4.46 (µM), S9 metabolic activation: without S9, exposure time: 24 hours | 0.9 | 1.3 | 123
concentration: 5.57 (µM), S9 metabolic activation: with S9, exposure time: 3-4 hours | 0.2 | 1.26 | 105
concentration: 5.57 (µM), S9 metabolic activation: without S9, exposure time: 24 hours | 0.78 | 1.5 | 125
concentration: 6.97 (µM), S9 metabolic activation: with S9, exposure time: 3-4 hours | 0.16 | 0.94 | 116
concentration: 6.97 (µM), S9 metabolic activation: without S9, exposure time: 24 hours | 0.92 | 1.42 | 122
concentration: 8.71 (µM), S9 metabolic activation: with S9, exposure time: 3-4 hours | 0.18 | 1.12 | 93
concentration: 8.71 (µM), S9 metabolic activation: without S9, exposure time: 24 hours | 0.94 | 2.32 | 131
concentration: 10.9 (µM), S9 metabolic activation: with S9, exposure time: 3-4 hours | 0.16 | 1.28 | 117
concentration: 10.9 (µM), S9 metabolic activation: without S9, exposure time: 24 hours | 0.9 | 2.1 | 114
concentration: 13.6 (µM), S9 metabolic activation: with S9, exposure time: 3-4 hours | 0.16 | 1.46 | 94.8
concentration: 13.6 (µM), S9 metabolic activation: without S9, exposure time: 24 hours | 0.72 | 0.94 | 119
concentration: 17 (µM), S9 metabolic activation: with S9, exposure time: 3-4 hours | 0.2 | 1.48 | 89.9
concentration: 17 (µM), S9 metabolic activation: without S9, exposure time: 24 hours | 0.66 | 1.44 | 110
concentration: 21.3 (µM), S9 metabolic activation: with S9, exposure time: 3-4 hours | 0.16 | 0.94 | 91.1
concentration: 21.3 (µM), S9 metabolic activation: without S9, exposure time: 24 hours | 0.8 | 1.48 | 100
concentration: 26.6 (µM), S9 metabolic activation: with S9, exposure time: 3-4 hours | 0.36 | 0.6 | 113
concentration: 26.6 (µM), S9 metabolic activation: without S9, exposure time: 24 hours | 0.6 | 1.16 | 125
concentration: 33.2 (µM), S9 metabolic activation: with S9, exposure time: 3-4 hours | 0.24 | 0.82 | 126
concentration: 33.2 (µM), S9 metabolic activation: without S9, exposure time: 24 hours | 0.76 | 2.14 | 137
concentration: 41.5 (µM), S9 metabolic activation: with S9, exposure time: 3-4 hours | 0.3 | 1.1 | 132
concentration: 41.5 (µM), S9 metabolic activation: without S9, exposure time: 24 hours | 0.56 | 1.5 | 145
concentration: 51.9 (µM), S9 metabolic activation: with S9, exposure time: 3-4 hours | 0.22 | 1.32 | 105
concentration: 51.9 (µM), S9 metabolic activation: without S9, exposure time: 24 hours | 0.9 | 2.56 | 126
concentration: 64.9 (µM), S9 metabolic activation: with S9, exposure time: 3-4 hours | 0.36 | 1.48 | 123
concentration: 64.9 (µM), S9 metabolic activation: without S9, exposure time: 24 hours | 0.96 | 1.78 | 144
concentration: 81.1 (µM), S9 metabolic activation: with S9, exposure time: 3-4 hours | 0.36 | 2.14 | 125
concentration: 81.1 (µM), S9 metabolic activation: without S9, exposure time: 24 hours | 1.04 | 3.7 | 107
concentration: 101 (µM), S9 metabolic activation: with S9, exposure time: 3-4 hours | 0.32 | 3.02 | 113
concentration: 101 (µM), S9 metabolic activation: without S9, exposure time: 24 hours | 1 | 2 | 120
concentration: 127 (µM), S9 metabolic activation: with S9, exposure time: 3-4 hours | 0.2 | 1.62 | 115
concentration: 127 (µM), S9 metabolic activation: without S9, exposure time: 24 hours | 1.04 | 2.9 | 103
concentration: 158 (µM), S9 metabolic activation: with S9, exposure time: 3-4 hours | 0.36 | 2.18 | 117
concentration: 158 (µM), S9 metabolic activation: without S9, exposure time: 24 hours | 1.16 | 2.62 | 98
concentration: 198 (µM), S9 metabolic activation: with S9, exposure time: 3-4 hours | 0.32 | 1.46 | 93.5
concentration: 198 (µM), S9 metabolic activation: without S9, exposure time: 24 hours | 1.46 | 2.04 | 81.3
